# PubChem BioAssay AID445 (National Center for Advancing Translational Sciences (NCATS), 2006)
# About 40 (0.04%) of roughly 110,000 compounds were called active. Inconclusive means that the source gave no clear call. Such entries were picked first, then a sample of the others. Calls follow the shape of the dose curve; as a rule, active = well fitted curve in the direction sought with a large enough effect in the signal ratio (not every such curve was filed as active); inconclusive = small, poorly fitted or top-dose-only effect, or a change in a side signal; inactive = flat fitted curve, though single readings scatter; the % refers to the signal ratio. Potencies beside an inconclusive call are fits to weak or partial responses and may not hold up.
# Assay: IkB Signaling;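 as to IkBa stabilization activation: 0% = basal untreated cells and 100% = reference inhibitor full response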
# Details: ABC-DLBCL IkBa-CBG/CBR dual luciferase ratio (green luciferase fused to IkBa over red control in OCI-Ly3 lymphoma cells), 4 h; IkBa stabilization activation: at 57.1 µM (top of the series), scaled: untreated 0%, proteasome inhibitor 100% unless noted
# Summary of the method: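 In this assay, an IκBα–CBG68 fusion accumulates when IKK-driven degradation is blocked; native CBR normalizes for cell number. OCI-Ly3 cells were treated 4 h with compound and doxycycline, then green and red light read after Chroma-Glo addition.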
# Potency is read from the fitted curve at half-maximal effect.
SMILES,IkBa stabilization activation,Potency
CCCN1CCN(C(=O)Cn2c(-c3cccs3)cc3cc(F)ccc32)CC1,inconclusive: 2.46% [signal inhibitor],
O=C(NCCc1ccccc1)c1ccc(Nc2nc3ccccc3n3nnnc23)cc1,,"inconclusive: 15.8 µM [signal inhibitor, partial curve]"
Cc1cccn2c(=O)c3cc(C(=O)NCC4CCCO4)c(=N)n(Cc4cccnc4)c3nc12 (stereo not given),inactive: 0.559%,
COc1ccc(-c2noc(CSc3nnc(C)n3-c3cccc(C)c3)n2)cc1,inconclusive: 0.118% [signal inhibitor],
COc1cc(C(=O)NCCc2csc(-c3ccc(Cl)cc3)n2)cc(OC)c1OC,inconclusive: 3.69% [signal inhibitor],
COc1ccc(O)c(C2=Nc3ccccc3N=C(c3ccccc3)C2)c1,inconclusive: 17% [signal inhibitor],
CC(=O)Nc1nc(-c2ccc(Cl)cc2)nc(C)c1C(C)=O,inactive: 1.06%,
CCOC(=O)c1nc(Nc2ccc(C(=O)OC(C)C)cc2)c2ccccc2n1,inconclusive: 2.39% [signal inhibitor],
COc1ccccc1NC(=O)c1oc2ccccc2c1NC(=O)Cc1ccccc1,inconclusive: 1.27% [signal inhibitor],
CC(O)Cc1nsc(NC(=O)c2cccs2)n1 (stereo not given),inconclusive: 9.3% [signal inhibitor],
CCc1ccc(C(=O)NCC2COc3ccccc3O2)o1 (stereo not given),inactive: -1.11%,
O=C(CN1C(=O)CC(c2ccccc2)=Nc2ccccc21)Nc1ccc(Br)cc1,inconclusive: 0.976% [signal inhibitor],
COc1cc(NC(=O)Cc2nn(C)c(=O)c3ccccc23)cc(OC)c1,inconclusive: 9.19% [signal inhibitor],
Oc1ccccc1Nc1nc2ccccc2n2nnnc12,,"inconclusive: 3.98 µM [signal inhibitor, partial curve]"
COc1ccc(-c2[nH]ncc2-c2ccc3c(c2)OCCO3)c(O)c1,inconclusive: -2.6% [signal inhibitor],
CCCCOc1ncnc2c1[nH]c1ccccc12,inactive: 2.08%,
COc1ccc(-c2cnc(SCC(=O)Nc3cc(C)on3)n2Cc2ccco2)cc1,inconclusive: 12.6% [signal inhibitor],
O=C(Cn1c(=O)n(Cc2nc(-c3ccccc3)no2)c(=O)c2ccccc21)Nc1cccc(Cl)c1,inconclusive: 0.782% [signal inhibitor],
Cc1ccc(C)c(Nc2nnc(-c3ccc(C)c(S(=O)(=O)NCC4CCCO4)c3)c3ccccc23)c1 (stereo not given),inconclusive: 9.22% [signal inhibitor],
O=c1c(-c2cccs2)nc2cnc(Oc3ccccc3)nc2n1Cc1cccs1,"inactive: -0.911% [at 11.4 µM, scaled: untreated 0%, proteasome inhibitor 100%]",
COC(=O)CSc1nnc(-c2ccccc2O)n1-c1ccc(C)cc1,inactive: -0.78%,
CCOc1ccc(N2C(=O)c3[nH]nc(-c4ccc(OC)cc4)c3C2c2cccs2)cc1 (stereo not given),inconclusive: 14% [signal inhibitor],
COc1ccccc1CN(Cc1cc2cc(C)ccc2[nH]c1=O)Cc1nnnn1CC1CCCO1 (stereo not given),,"inconclusive: 15.8 µM [signal inhibitor, partial curve]"
Cc1cccc(NC(=O)CN2CCCN(S(=O)(=O)c3ccc(Br)s3)CC2)c1,inconclusive: 8.98% [signal inhibitor],

SMILES,IkBa stabilization activation,Potency
COc1ccccc1NC(=O)CSc1ncnc2c1oc1ccccc12,inactive: 0.173%,
COc1ccc(S(=O)(=O)N2CCC(C(=O)N3CCc4ccccc4C3)CC2)cc1,inactive: 2.15%,
Cc1nc2cc(NC(=O)Nc3nccs3)ccc2n1C,inactive: 0.89%,
CN(C)CCC(=O)[C@@]1(O)CC[C@H]2[C@H]3CC=C4C[C@@H](O)CC[C@]4(C)[C@H]3CC[C@]21C,,active: 5.01 µM
O=C(NCCC1=CCCCC1)C1CCN(C(=O)N2CCOc3ccc(Cl)cc32)CC1,inconclusive: -0.493% [signal inhibitor],
COc1ccccc1C1C=C(c2ccc(C(C)C)cc2)Nc2nnnn21 (stereo not given),inconclusive: 0.366% [signal inhibitor],
Fc1ccc(-n2ncc3c(Nc4cccc(Cl)c4)ncnc32)cc1,inconclusive: 11.3% [signal inhibitor],
COc1cc(OC)cc(-c2nc3nc(C)c(CCC(=O)Nc4ccc(C)cc4C)c(C)n3n2)c1,inconclusive: 2.81% [signal inhibitor],
COc1ccc(C(=O)COC(=O)CN2CC(=O)Oc3ccccc32)cc1Br,,"inconclusive: 3.98 µM [signal inhibitor, full curve]"
CCN(CC)S(=O)(=O)c1ccc(C(=O)Nc2nc3ccc(Cl)cc3s2)cc1,inconclusive: -3.12% [signal inhibitor],
CC1=CCC(Cc2nc3ccccc3o2)C1(C)C (stereo not given),inconclusive: 2.63% [signal inhibitor],
O=C1CCc2cc(S(=O)(=O)NCc3ccccc3Cl)cc3c2N1CC3,inconclusive: 3.11% [signal inhibitor],
CN(C)c1cccc(C(=O)Nc2cccc(F)c2)c1,inconclusive: 2.34% [signal inhibitor],
c1cncc(-c2nc(-c3ccco3)cs2)c1,inconclusive: 2.78% [signal inhibitor],
COc1cc(C(=O)N2CCN(c3ncnc4sc(C)c(C)c34)CC2)cc(OC)c1OC,inconclusive: 2.16% [signal inhibitor],
O=C(CCn1ccc2cc(S(=O)(=O)N3CCCC3)ccc21)NCc1ccccc1F,inconclusive: 1.07% [signal inhibitor],
CCn1nc(C)c2c(-c3ccccc3)cc(=O)n(C(C)C(=O)NCc3ccccc3OC)c21 (stereo not given),inconclusive: 8.23% [signal inhibitor],
COc1cc(Nc2nc(SCc3ccccc3Cl)nc3ccccc23)cc(OC)c1,inactive: -1.6%,
COc1cccc(NC(=O)c2oc3ccccc3c2NC(=O)C2CCCCC2)c1,inconclusive: 4.74% [signal inhibitor],
COc1ccc(C(=O)/C=C/c2cn(CC(O)CN3CCc4ccccc43)c3ccccc23)cc1 (stereo not given),inconclusive: 1.28% [signal inhibitor],
CCOc1ccc(NC(=O)CSc2oc(-c3ccccc3)nc2S(=O)(=O)c2ccc(Cl)cc2)cc1,inactive: -3.42%,
COC(=O)c1cc(NC(=O)c2cc3sccc3n2Cc2ccc(Cl)cc2)cc(C(=O)OC)c1,inactive: 0.767%,
CCOCc1cc(CN2CCN(c3ccccc3OC)CC2)c(O)c2ncccc12,inactive: 1.88%,
COc1cc(-c2cc3n(C)c(C)c(CCC(=O)O)c(=O)n3n2)cc(OC)c1OC,inactive: -1.5%,

SMILES,IkBa stabilization activation,Potency
O=C(c1cnn2c(C(F)(F)F)cc(-c3ccc4c(c3)OCO4)nc12)N1CCCCC1,inactive: 0.295%,
CCOc1ccc(NC(=O)C2CCN(C(=O)N3CC(C)Oc4ccc(Cl)cc43)CC2)cc1 (stereo not given),inactive: -1.4%,
CCc1ccccc1NC(=O)CSc1nc2n[nH]c(C)c2c(=N)n1-c1ccc(OC)cc1,inconclusive: 6.51% [signal inhibitor],
CCOc1cc(-c2c(C#N)c(N)nc3c2CCCC3)ccc1O,inactive: 2.9%,
Cc1ccc(CNC(=O)CCC(=O)N2CC3CCCN3c3ccccc32)cc1 (stereo not given),inconclusive: -1.91% [signal inhibitor],
CN(C)c1cccc(C(=O)NC2CCCCCC2)c1,,"inconclusive: 12.6 µM [signal inhibitor, partial curve]"
Nc1nc(CC(=O)O)cs1,inactive: 3.97%,
O=C(Nc1ccc2oc(-c3cc(Br)ccc3Cl)nc2c1)c1cc2ccccc2o1,inactive: -0.854%,
Cc1cc(C)c(S(=O)(=O)NCCc2cc3ccc(C)c(C)c3[nH]c2=O)c(C)c1,inconclusive: 7.48% [signal inhibitor],
FC(F)(F)c1ccccc1-c1nc(N2CCOCC2)c2ccccc2n1,"inactive: 4% [at 11.4 µM, scaled: untreated 0%, proteasome inhibitor 100%]",
O=c1c2sc3ccccc3c2n(Cc2cccc(Cl)c2)c(=O)n1Cc1ccco1,inconclusive: -2.89% [signal inhibitor],
CCOc1ccc(C2=CC(c3cccc(Br)c3)n3c(nc4ccccc43)N2)cc1Cl (stereo not given),inactive: 6.44%,
Cc1cc(NC(=O)c2cc(-c3cccc(Cl)c3)on2)n(-c2ccccc2)n1,inactive: 18.5%,
Cc1ccccc1OCCn1c(=N)n(C(C)C)c2ccccc21,inconclusive: 2.22% [signal inhibitor],
CC(=O)OCC(=O)[C@]12OC(C)(C)O[C@@H]1C[C@H]1[C@H]3CC=C4C[C@@H](O)CC[C@]4(C)[C@H]3CC[C@]12C,"inactive: -1.72% [at 11.4 µM, scaled: untreated 0%, proteasome inhibitor 100%]",
CN(C)c1ncc2nc(-c3cc(F)cc(F)c3)c(=O)n(Cc3cccs3)c2n1,"inactive: -2.69% [at 11.4 µM, scaled: untreated 0%, proteasome inhibitor 100%]",
Fc1ccc(-n2ncc3c(NC4CCCCCC4)ncnc32)cc1,inconclusive: 2.12% [signal inhibitor],
Cc1cc(C)nc(NS(=O)(=O)c2ccc(NC(=O)c3ccc4c(c3)OCO4)cc2)n1,inconclusive: 15.4% [signal inhibitor],
CCNC(=O)CC1C(=O)N(c2ccc(F)cc2)C(=O)N1CCOC (stereo not given),inactive: 1.72%,
O=C(CCc1ccccc1)NCc1nc2cccnc2n1Cc1ccc(F)cc1,inconclusive: 0.399% [signal inhibitor],
CCOC(=O)N1CCc2c(sc3c2c(=O)n(-c2ccccc2)c(=O)n3CC(=O)Nc2ccc(OC)cc2OC)C1,inconclusive: -1.82% [signal inhibitor],
NC(=O)c1cnn2c(C(F)(F)F)cc(-c3ccc(F)cc3)nc12,inactive: -0.288%,
